Measurements published in patent publication US5942489A, “HGH-RH(1-29)NH2 analogues having antagonistic activity” (The Administrators of the Tulane Educational Fund, priority 1996, dated 1999).
At least one peptide structure holds a part that was inferred or is arguable (an end, a ring closure or a residue). Some compounds share one wording; it may come from a single statement. Values belong to the compound of their own block, whether it stands above or below them. Where a SMILES comes first, the peptide text is derived from it. Bridges are numbered along the chain shown (N, C = ends). [ ]: non-standard residue; d: D form. The star is where a group is joined. Phe(4-Cl) = N[C@@H](Cc1ccc(Cl)cc1)C(=O)O; Agmatine = N=C(N)NCCCCN*; Isobutyryl = CC(C)C(=O)*; Nle = CCCC[C@H](N)C(=O)O; Abu = CC[C@H](N)C(=O)O; PhAc = O=C(Cc1ccccc1)*

Experiments:
[1] = system: GH release induced by 1 nM hGH-RH(1-29)NH2 in superfused rat pituitary cells; assay: Inhibition of hGH-RH(1-29)NH2-induced GH release in superfused rat pituitary system; type: cell-based; settings: 30 nM peptide; for Inhibition of GH release (%) 0 min: 0 min response; for Inhibition of GH release (%) 30 min: 30 min response; for Inhibition of GH release (%) 60 min: 60 min response; for Inhibition of GH release (%) 90 min: 90 min response; for Inhibition of GH release (%) 120 min: 120 min response
[2] = system: GH release stimulated by hGH-RH(1-29)NH2; assay: In vivo inhibition of hGH-RH(1-29)NH2-stimulated serum GH in anesthetized rats; design: species or system Sprague-Dawley rats; settings: for Inhibition % / Serum GH Levels: 80 μg/kg i.v.; for inhibition of GH release stimulated by hGH-RH(1-29)NH2 compared with the standard antagonist: in vivo, rats
Experimental: In Vivo Tests. Adult male Sprague-Dawley rats are anesthetized with pentobarbital (6 mg/100 g b.w., i.p.). Blood samples are taken from the jugular vein 30 min after the injection of pentobarbital. One group of 7 animals receives hGH-RH(1-29)NH2 as control. […] Blood samples are taken from the jugular vein 5 and 15 min after the injection of antagonists. GH levels are measured by RIA. Potencies of the antagonists are calculated by the factorial analysis of Bliss and Marks with 95% confidence limits and are based on the doses of 100 and 400 μg/kg b.w. of the Standard antagonist and 20 and 80 μg/kg b.w. of the antagonists tested. Statistical significance was assessed by Duncan's new multiple range test.

[3] = target: T1, rat pituitary GH-RH receptors (Rattus norvegicus, UniProt Q02644); assay: GH-RH radioreceptor binding assay, competition with labelled [His1,Nle27]hGH-RH(1-32)NH2; settings: relative to Standard antagonist (=1)
T1 construct: from tissue; host or cells: anterior pituitary of male Sprague-Dawley rats, crude membranes
T1 sequence (Q02644 23-464): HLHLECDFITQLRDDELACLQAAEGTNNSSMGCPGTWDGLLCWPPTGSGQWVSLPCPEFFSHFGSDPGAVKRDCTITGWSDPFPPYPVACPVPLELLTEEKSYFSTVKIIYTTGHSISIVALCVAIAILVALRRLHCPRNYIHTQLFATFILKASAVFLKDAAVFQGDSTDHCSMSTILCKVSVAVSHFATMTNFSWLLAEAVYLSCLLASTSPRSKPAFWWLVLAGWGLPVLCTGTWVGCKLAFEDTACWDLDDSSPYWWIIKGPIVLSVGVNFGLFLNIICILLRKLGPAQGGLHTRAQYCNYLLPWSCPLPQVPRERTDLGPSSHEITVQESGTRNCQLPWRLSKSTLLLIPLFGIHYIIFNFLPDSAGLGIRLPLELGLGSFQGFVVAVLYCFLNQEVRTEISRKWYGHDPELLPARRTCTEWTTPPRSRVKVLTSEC
Experimental: GH-RH Binding Assay. A sensitive radioreceptor binding assay was developed to determine the binding characteristics of the antagonists of GH-RH (G. Halmos, A. V. Schally et al., Receptor 3, 87-97, 1993), hereby incorporated by reference. The assay is based on binding of labelled [His^1, Nle^27 ]hGH-RH(1-32)NH2 to rat anterior pituitary membrane homogenates. Iodinated derivatives of [His^1, Nle^27 ]hGH-RH(1-32)NH2 are prepared by the chloramine-T method (F. C. Greenwood et al., Biochemistry 89:114-123, 1963), hereby incorporated by reference. Pituitaries from male Sprague-Dawley rats (250-300 g) are used to prepare crude membranes. For saturation binding analyses, membrane homogenates are incubated with at least 6 concentrations of [His^1,125I-Tyr^10,Nle^27 ]hGH-RH(1-32)NH2, ranging from 0.005 to 0.35 nM in the presence or absence of excess unlabelled peptide (1 μM).
The pellet is counted for radioactivity in a γ-counter. The affinities of the antagonist peptides tested to rat pituitary GH-RH receptors are determined in competitive binding experiments. The final binding affinities are estimated by Ki (dissociation constant of the inhibitor-receptor complex) and are determined by the Ligand PC computer program of Munson and Rodbard as modified by McPherson. Relative affinities compared to [Ac-Tyr^1, D-Arg^2 ]hGH-RH(1-29)NH2, the Standard antagonist, are calculated as the ratio of Ki of the tested GH-RH antagonist to the Ki of the Standard antagonist.

[4] = 2 min prior to GH-RH(1-29)NH2 3 μg/kg
[5] = 15 min prior to GH-RH(1-29)NH2 3 μg/kg

relative affinities (R.A.) [3]: 57.12
Compound: CCCC[C@H](NC(=O)[C@@H](NC(=O)[C@H](CC(=O)O)NC(=O)[C@H](CCC(N)=O)NC(=O)[C@H](CC(C)C)NC(=O)[C@H](CC(C)C)NC(=O)[C@H](CCCCN)NC(=O)[C@H](CCCNC(=N)N)NC(=O)[C@H](C)NC(=O)[C@H](CO)NC(=O)[C@H](CC(C)C)NC(=O)[C@H](CCC(N)=O)NC(=O)[C@H](C)NC(=O)[C@H](CC(C)C)NC(=O)[C@@H](NC(=O)[C@H](CCCCN)NC(=O)[C@H](CCCNC(=N)N)NC(=O)[C@H](Cc1ccc(O)cc1)NC(=O)[C@H](CO)NC(=O)[C@H](CC)NC(=O)[C@@H](NC(=O)[C@H](Cc1ccc(Cl)cc1)NC(=O)[C@@H](NC(=O)[C@H](C)NC(=O)[C@H](CC(=O)O)NC(=O)[C@@H](CCCNC(=N)N)NC(=O)[C@H](Cc1ccc(O)cc1)NC(=O)Cc1ccccc1)[C@@H](C)CC)[C@@H](C)O)C(C)C)[C@@H](C)CC)C(=O)N[C@@H](CO)C(=O)N[C@@H](CCCNC(=N)N)C(N)=O [Peptide 11, [PhAc^0,D-Arg^2,Phe(pCl)^6,Abu^8,Ala^15,Nle^27],hGH-RH(1-29)NH2] (PhAc-Y[dR]DAI[Phe(4-Cl)]T[Abu]SYRKVLAQLSARKLLQDI[Nle]SR-NH2)
Inhibition of GH release (%) 0 min [1]: 92.3% | Inhibition of GH release (%) 30 min [1]: 80.9% | Inhibition of GH release (%) 60 min [1]: 73.3% | Inhibition of GH release (%) 90 min [1]: 63.2% | Inhibition of GH release (%) 120 min [1]: 55.7% | inhibition of GH release stimulated by hGH-RH(1-29)NH2 compared with the standard antagonist [2]: significant greater and longer-lasting inhibition

relative affinities (R.A.) [3]: 11.19
Compound: CCCC[C@H](NC(=O)[C@@H](NC(=O)[C@H](CC(=O)O)NC(=O)[C@H](CCC(N)=O)NC(=O)[C@H](CC(C)C)NC(=O)[C@H](CC(C)C)NC(=O)[C@H](CCCCN)NC(=O)[C@H](CCCNC(=N)N)NC(=O)[C@H](C)NC(=O)[C@H](CO)NC(=O)[C@H](CC(C)C)NC(=O)[C@H](CCC(N)=O)NC(=O)[C@H](C)NC(=O)[C@H](CC(C)C)NC(=O)[C@@H](NC(=O)[C@H](CCCCN)NC(=O)[C@H](CCCNC(=N)N)NC(=O)[C@H](Cc1ccc(O)cc1)NC(=O)[C@H](CO)NC(=O)[C@H](CC(N)=O)NC(=O)[C@@H](NC(=O)[C@H](Cc1ccc(Cl)cc1)NC(=O)[C@@H](NC(=O)[C@H](C)NC(=O)[C@H](CC(=O)O)NC(=O)[C@@H](CCCNC(=N)N)NC(=O)[C@H](Cc1ccc(O)cc1)NC(=O)Cc1ccccc1)[C@@H](C)CC)[C@@H](C)O)C(C)C)[C@@H](C)CC)C(=O)N[C@@H](CC(=O)O)C(=O)NCCCCNC(=N)N [Peptide 5, [PhAc^0,D-Arg^2,Phe(pCl)^6,Ala^15,Nle^27,Asp^28]hGH-RH(1-28)Agm] (PhAc-Y[dR]DAI[Phe(4-Cl)]TNSYRKVLAQLSARKLLQDI[Nle]D-Agmatine)
Inhibition of GH release (%) 0 min [1]: 97.1% | Inhibition of GH release (%) 30 min [1]: 93.9% | Inhibition of GH release (%) 60 min [1]: 80.1% | Inhibition of GH release (%) 90 min [1]: 56.9%

relative affinities (R.A.) [3]: 7.39
Compound: CCCC[C@H](NC(=O)[C@@H](NC(=O)[C@@H]1CCC(=O)NCCCC[C@H](NC(=O)[C@H](CCCNC(=N)N)NC(=O)[C@H](C)NC(=O)[C@H](CO)NC(=O)[C@H](CC(C)C)NC(=O)[C@H](CCC(N)=O)NC(=O)[C@H](C)NC(=O)[C@H](CC(C)C)NC(=O)[C@@H](NC(=O)[C@H]2CCCCNC(=O)CC[C@H](NC(=O)[C@@H](NC(=O)[C@H](Cc3ccc(Cl)cc3)NC(=O)[C@@H](NC(=O)[C@H](C)NC(=O)[C@H](CC(=O)O)NC(=O)[C@@H](CCCNC(=N)N)NC(=O)[C@H](Cc3ccc(O)cc3)NC(=O)Cc3ccccc3)[C@@H](C)CC)[C@@H](C)O)C(=O)N[C@@H](CO)C(=O)N[C@@H](Cc3ccc(O)cc3)C(=O)N[C@@H](CCCNC(=N)N)C(=O)N2)C(C)C)C(=O)N[C@@H](CC(C)C)C(=O)N[C@@H](CC(C)C)C(=O)N[C@@H](CCC(N)=O)C(=O)N1)[C@@H](C)CC)C(=O)N[C@@H](CO)C(=O)N[C@@H](CCCNC(=N)N)C(N)=O [Peptide 23, cyclo^8,12; 21,25 [[PhAc^0,D-Arg^2,Phe(pCl)^6,Glu^8,25,D-Lys^12,Ala^15,Nle^27]hGH-RH(1-29)-NH2] (PhAc-Y[dR]DAI[Phe(4-Cl)]TESYR[dK]VLAQLSARKLLQEI[Nle]SR-NH2; lactam 8-12, 21-25)
Inhibition of GH release (%) 0 min [1]: 54.5% | Inhibition of GH release (%) 30 min [1]: 28.3% | Inhibition of GH release (%) 60 min [1]: 16.3% | Inhibition of GH release (%) 90 min [1]: 21.0%

Further lines, the compound ahead of its results:

Compound: CCCC[C@H](NC(=O)[C@@H](NC(=O)[C@H](CC(=O)O)NC(=O)[C@H](CCC(N)=O)NC(=O)[C@H](CC(C)C)NC(=O)[C@H](CC(C)C)NC(=O)[C@H](CCCCN)NC(=O)[C@H](CCCNC(=N)N)NC(=O)[C@H](C)NC(=O)[C@H](CO)NC(=O)[C@H](CC(C)C)NC(=O)[C@H](CCC(N)=O)NC(=O)[C@H](C)NC(=O)[C@H](CC(C)C)NC(=O)[C@@H](NC(=O)[C@H](CCCCN)NC(=O)[C@H](CCCNC(=N)N)NC(=O)[C@H](Cc1ccc(O)cc1)NC(=O)[C@H](CO)NC(=O)[C@H](CC)NC(=O)[C@@H](NC(=O)[C@H](Cc1ccc(Cl)cc1)NC(=O)[C@@H](NC(=O)[C@H](C)NC(=O)[C@H](CC(=O)O)NC(=O)[C@@H](CCCNC(=N)N)NC(=O)[C@H](Cc1ccc(O)cc1)NC(=O)Cc1ccccc1)[C@@H](C)CC)[C@@H](C)O)C(C)C)[C@@H](C)CC)C(=O)N[C@@H](CC)C(=O)N[C@@H](CCCNC(=N)N)C(N)=O [Peptide 13, [PhAc^0,D-Arg^2,Phe(pCl)^6,Abu^8,28,Ala^15,Nle^27]hGH-RH(1-29)NH2] (PhAc-Y[dR]DAI[Phe(4-Cl)]T[Abu]SYRKVLAQLSARKLLQDI[Nle][Abu]R-NH2)
Inhibition of GH release (%) 0 min [1]: 92.3% | Inhibition of GH release (%) 30 min [1]: 90.0% | Inhibition of GH release (%) 60 min [1]: 77.3% | Inhibition of GH release (%) 90 min [1]: 64.7% | Inhibition of GH release (%) 120 min [1]: 61.1% | Inhibition % [2, 4]: 64% | Serum GH Levels [2, 4]: 316.01 ± 68.24 ng/mL | Inhibition % [2, 5]: 27% | Serum GH Levels [2, 5]: 641.73 ± 92.01 ng/mL | inhibition of GH release stimulated by hGH-RH(1-29)NH2 compared with the standard antagonist [2]: significant greater and longer-lasting inhibition

Compound: CCCC[C@H](NC(=O)[C@@H](NC(=O)[C@H](CC(=O)O)NC(=O)[C@H](CCC(N)=O)NC(=O)[C@H](CC(C)C)NC(=O)[C@H](CC(C)C)NC(=O)[C@H](CCCCN)NC(=O)[C@H](CCCNC(=N)N)NC(=O)[C@H](C)NC(=O)[C@H](CO)NC(=O)[C@H](CC(C)C)NC(=O)[C@H](CCC(N)=O)NC(=O)[C@H](CC)NC(=O)[C@H](CC(C)C)NC(=O)[C@@H](NC(=O)[C@H](CCCCN)NC(=O)[C@H](CCCNC(=N)N)NC(=O)[C@H](Cc1ccc(O)cc1)NC(=O)[C@H](CO)NC(=O)[C@H](NC(=O)[C@@H](NC(=O)[C@H](Cc1ccc(Cl)cc1)NC(=O)[C@@H](NC(=O)[C@H](C)NC(=O)[C@H](CC(=O)O)NC(=O)[C@@H](CCCNC(=N)N)NC(=O)[C@H](Cc1ccc(O)cc1)NC(=O)C(C)C)[C@@H](C)CC)[C@@H](C)O)[C@H](C)O)C(C)C)[C@@H](C)CC)C(=O)N[C@@H](CO)C(=O)NCCCCNC(=N)N [Peptide 7, [Ibu^0,D-Arg^2,Phe(pCl)^6,D-Thr^8,Abu^15,Nle^27]hGH-RH(1-28)Agm] (Isobutyryl-Y[dR]DAI[Phe(4-Cl)]T[dT]SYRKVL[Abu]QLSARKLLQDI[Nle]S-Agmatine)
Inhibition of GH release (%) 0 min [1]: 96.3% | Inhibition of GH release (%) 30 min [1]: 41.5% | Inhibition of GH release (%) 60 min [1]: 21.5% | Inhibition of GH release (%) 90 min [1]: 23.2% | Inhibition of GH release (%) 120 min [1]: 20.6% | Inhibition % [2, 4]: 31% | Serum GH Levels [2, 4]: 611.07 ± 87.75 ng/mL | Inhibition % [2, 5]: N.S. | Serum GH Levels [2, 5]: 688.39 ± 107.91 ng/mL | inhibition of GH release stimulated by hGH-RH(1-29)NH2 compared with the standard antagonist [2]: significant greater and longer-lasting inhibition
